T1: human MSLN-R1-his protein (human, UniProt Q13421 296-390)
T1 construct: also called hMSLN-R1-his; not shown: histidine tag
T1 chain: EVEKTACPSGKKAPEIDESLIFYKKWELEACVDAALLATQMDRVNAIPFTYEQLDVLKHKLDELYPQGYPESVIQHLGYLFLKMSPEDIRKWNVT

B1: NB149-31 VHH-hFc (Fc fusion)
chain: EVQVVESGGGLVQPGGSLRLSCAASGITFSGNYGGWFRQAPGEQRELVASMSSALGTKYADPVKGRFTISTDTAKNTVDLQMNSLGPEDTAVYYCYARVRLSRGGWGSEYWGQGTQVTVSS[human IgG1 Fc with changes not written out]
notes: no linker stated
B2: NB148-88 VHH-hFc (Fc fusion)
chain: QLQLVESGGGLVQPGGSHRLSCAVSVSTFTRYAMRWYRQAPGKEREWLTSIYSDGSSAYADSVKDRFTISLDNAKNMLYLQMNSLKPEDTAVYYCNANVDSKAYWGQGTQVTVAS[human IgG1 Fc with changes not written out]
notes: no linker stated
B3: NB148-35 VHH-hFc (Fc fusion)
chain: EVQVVESGGGLVQPGGSLRLSCGVSGSILALNTMRWYRQTPGNQREWVASIYSSGGSTGYADSVKGRFIISRDSAKNMMSLQMNSLKSEDTAVYYCNVQTPLNVYWGQGTQVTVSS[human IgG1 Fc with changes not written out]
notes: no linker stated
B4: NB148-46 VHH-hFc (Fc fusion)
chain: EVQLVESGGGLVQAGGSLRLSCAASGSTFSSYPMGWYRQAPGKQRELVAAISSGGSTNYADSVKGRFTISRDNAKNTVYLQMNSLKPEDTAVYYCNTRSPRVPNDSWGQGTQVTVSS[human IgG1 Fc with changes not written out]
notes: no linker stated
B5: NB149-70 VHH-hFc (Fc fusion)
chain: QVQLVESGGGLVQPGGSLRLSCAASGSIFSGNAVAWYRQAPGKEREAVAVITRDGDTKYADSVKGRFTISRYNAKNIAYLQMNSLKPEDTAVYYCNTARGAAVDSWGQGTQVTVSS[human IgG1 Fc with changes not written out]
notes: no linker stated

target: T2, human MSLN-FL-his protein (human, UniProt Q13421 296-580); experiment: ELISA, coated antigen, 1 nM antibody
T2 construct: also called hMSLN-FL-his; not shown: histidine tag

Row | Binder | OD450 nm [OD450 nm]
1 | B1 | 1.4
2 | B2 | 1.67
3 | B3 | 1.82
4 | B4 | 1.74
5 | B5 | 1.61

target: T3, human MSLN-R3-his protein (human, UniProt Q13421 487-598); experiment: ELISA, coated antigen, 1 nM antibody
T3 construct: also called hMSLN-R3-his; not shown: histidine tag

Row | Binder | OD450 nm [OD450 nm]
6 | B1 | 0.05
7 | B2 | 0.05
8 | B3 | 0.05
9 | B4 | 0.05
10 | B5 | 0.05

target: T2, human MSLN-FL-his protein; experiment: ELISA, coated antigen, 10 nM antibody

Row | Binder | OD450 nm [OD450 nm]
11 | B1 | 2.14
12 | B2 | 2.67
13 | B3 | 2.61
14 | B4 | 2.63
15 | B5 | 2.16

target: T3, human MSLN-R3-his protein; experiment: ELISA, coated antigen, 10 nM antibody
T3 sequence (Q13421 495-606): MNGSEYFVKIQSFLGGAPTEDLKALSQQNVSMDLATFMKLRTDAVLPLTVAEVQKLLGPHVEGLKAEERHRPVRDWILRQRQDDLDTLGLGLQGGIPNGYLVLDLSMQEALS

Row | Binder | OD450 nm [OD450 nm]
16 | B1 | 0.05
17 | B2 | 0.05
18 | B3 | 0.05
19 | B4 | 0.05
20 | B5 | 0.05

target: T2, human MSLN-FL-his protein; experiment: ELISA, coated antigen, 20 nM antibody

Row | Binder | OD450 nm [OD450 nm]
21 | B1 | 2.74
22 | B2 | 2.56
23 | B3 | 2.87
24 | B4 | 2.62
25 | B5 | 2.65

Target: T1, human MSLN-R1-his protein
Experiment: ELISA, coated antigen, 20 nM antibody

Row | Binder | OD450 nm [OD450 nm]
26 | B1 | 2.05
27 | B2 | 0.25
28 | B3 | 0.14
29 | B4 | 1.69
30 | B5 | 2.25

target: T4, human MSLN-R2-his protein (human, UniProt Q13421 391-486); experiment: ELISA, coated antigen, 20 nM antibody
T4 construct: also called hMSLN-R2-his; not shown: histidine tag

Row | Binder | OD450 nm [OD450 nm]
31 | B1 | 0.14
32 | B2 | 2.45
33 | B3 | 2.68
34 | B4 | 0.17
35 | B5 | 0.14

target: T3, human MSLN-R3-his protein; experiment: ELISA, coated antigen, 20 nM antibody

Row | Binder | OD450 nm [OD450 nm]
36 | B1 | 0.06
37 | B2 | 0.06
38 | B3 | 0.11
39 | B4 | 0.05
40 | B5 | 0.05

target: T2, human MSLN-FL-his protein; experiment: ELISA, coated antigen, 0.1 nM antibody

Row | Binder | OD450 nm [OD450 nm]
41 | B1 | 0.28
42 | B2 | 0.27
43 | B3 | 0.24
44 | B4 | 0.35
45 | B5 | 0.39

target: T2, human MSLN-FL-his protein; experiment: ELISA, coated antigen, 100 nM antibody

Row | Binder | OD450 nm [OD450 nm]
46 | B1 | 2.63
47 | B2 | 2.88
48 | B3 | 2.56
49 | B4 | 3.21
50 | B5 | 2.3

target: T3, human MSLN-R3-his protein; experiment: ELISA, coated antigen, 0.1 nM antibody

Row | Binder | OD450 nm [OD450 nm]
51 | B1 | 0.05
52 | B2 | 0.05
53 | B3 | 0.05
54 | B4 | 0.05
55 | B5 | 0.05

target: T3, human MSLN-R3-his protein; experiment: ELISA, coated antigen, 100 nM antibody

Row | Binder | OD450 nm [OD450 nm]
56 | B1 | 0.05
57 | B2 | 0.05
58 | B3 | 0.05
59 | B4 | 0.05
60 | B5 | 0.05

target: T2, human MSLN-FL-his protein; experiment: ELISA, coated antigen, 0.2 nM antibody

Row | Binder | OD450 nm [OD450 nm]
61 | B1 | 2.58
62 | B2 | 2.4
63 | B3 | 2.42
64 | B4 | 2.4
65 | B5 | 2.48

Target: T1, human MSLN-R1-his protein
Experiment: ELISA, coated antigen, 0.2 nM antibody

Row | Binder | OD450 nm [OD450 nm]
66 | B1 | 1.7
67 | B2 | 0.19
68 | B3 | 0.06
69 | B4 | 1.05
70 | B5 | 1.79

target: T4, human MSLN-R2-his protein; experiment: ELISA, coated antigen, 0.2 nM antibody
T4 sequence (Q13421 other isoform, or with tags, fused parts or gaps): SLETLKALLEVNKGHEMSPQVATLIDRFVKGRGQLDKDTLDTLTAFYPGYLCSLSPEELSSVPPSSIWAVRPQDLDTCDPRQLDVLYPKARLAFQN

Row | Binder | OD450 nm [OD450 nm]
71 | B1 | 0.08
72 | B2 | 2.18
73 | B3 | 2.27
74 | B4 | 0.07
75 | B5 | 0.09

target: T3, human MSLN-R3-his protein; experiment: ELISA, coated antigen, 0.2 nM antibody

Row | Binder | OD450 nm [OD450 nm]
76 | B1 | 0.05
77 | B2 | 0.05
78 | B3 | 0.05
79 | B4 | 0.05
80 | B5 | 0.05

target: T2, human MSLN-FL-his protein; experiment: ELISA, coated antigen, 0.01 nM antibody

Row | Binder | OD450 nm [OD450 nm]
81 | B1 | 0.07
82 | B2 | 0.07
83 | B3 | 0.06
84 | B4 | 0.08
85 | B5 | 0.08

target: T3, human MSLN-R3-his protein; experiment: ELISA, coated antigen, 0.01 nM antibody

Row | Binder | OD450 nm [OD450 nm]
86 | B1 | 0.05
87 | B2 | 0.05
88 | B3 | 0.05
89 | B4 | 0.05
90 | B5 | 0.05

target: T2, human MSLN-FL-his protein; experiment: ELISA, coated antigen, 0.001 nM antibody

Row | Binder | OD450 nm [OD450 nm]
91 | B1 | 0.05
92 | B2 | 0.05
93 | B3 | 0.05
94 | B4 | 0.05
95 | B5 | 0.05

target: T3, human MSLN-R3-his protein; experiment: ELISA, coated antigen, 0.001 nM antibody

Row | Binder | OD450 nm [OD450 nm]
96 | B1 | 0.05
97 | B2 | 0.05
98 | B3 | 0.05
99 | B4 | 0.05
100 | B5 | 0.05

target: T2, human MSLN-FL-his protein; experiment: ELISA, coated antigen, 0.0001 nM antibody

Row | Binder | OD450 nm [OD450 nm]
101 | B1 | 0.05
102 | B2 | 0.05
103 | B3 | 0.05
104 | B4 | 0.05
105 | B5 | 0.05

target: T3, human MSLN-R3-his protein; experiment: ELISA, coated antigen, 0.0001 nM antibody

Row | Binder | OD450 nm [OD450 nm]
106 | B1 | 0.05
107 | B2 | 0.05
108 | B3 | 0.05
109 | B4 | 0.05
110 | B5 | 0.05

target: T2, human MSLN-FL-his protein; experiment: ELISA, coated antigen, 0 nM antibody (blank)

Row | Binder | OD450 nm [OD450 nm]
111 | B1 | 0.05
112 | B2 | 0.05
113 | B3 | 0.05
114 | B4 | 0.05
115 | B5 | 0.05

target: T3, human MSLN-R3-his protein; experiment: ELISA, coated antigen, 0 nM antibody (blank)

Row | Binder | OD450 nm [OD450 nm]
116 | B1 | 0.05
117 | B2 | 0.05
118 | B3 | 0.05
119 | B4 | 0.05
120 | B5 | 0.05

Source: patent US20240124563A1 (NANJING ZAIMING PHARMACEUTICAL, published 2024)
